PMC7406511
Results are given in words; binding and its absence hold for the method and conditions named. Binding seen in cells or lysates may run through a third protein. Some entries that bind do so weakly or less than the wild type. For some of these results: Tags and fused reporters may be left off the sequences shown.

Amino acid sequences for entries named in this document (tags omitted).
UniProt Q14457: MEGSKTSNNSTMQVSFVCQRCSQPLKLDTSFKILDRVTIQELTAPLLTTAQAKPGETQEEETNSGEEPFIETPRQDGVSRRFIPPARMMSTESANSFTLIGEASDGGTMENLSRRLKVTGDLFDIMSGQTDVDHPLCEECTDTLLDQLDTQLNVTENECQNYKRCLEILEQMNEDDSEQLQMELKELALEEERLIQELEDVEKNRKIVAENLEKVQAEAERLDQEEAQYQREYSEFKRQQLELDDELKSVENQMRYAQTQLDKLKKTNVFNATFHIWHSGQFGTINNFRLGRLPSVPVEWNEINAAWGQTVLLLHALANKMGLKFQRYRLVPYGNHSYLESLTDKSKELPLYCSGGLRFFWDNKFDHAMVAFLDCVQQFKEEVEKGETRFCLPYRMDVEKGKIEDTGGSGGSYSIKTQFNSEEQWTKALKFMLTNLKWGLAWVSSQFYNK
UniProt P06493: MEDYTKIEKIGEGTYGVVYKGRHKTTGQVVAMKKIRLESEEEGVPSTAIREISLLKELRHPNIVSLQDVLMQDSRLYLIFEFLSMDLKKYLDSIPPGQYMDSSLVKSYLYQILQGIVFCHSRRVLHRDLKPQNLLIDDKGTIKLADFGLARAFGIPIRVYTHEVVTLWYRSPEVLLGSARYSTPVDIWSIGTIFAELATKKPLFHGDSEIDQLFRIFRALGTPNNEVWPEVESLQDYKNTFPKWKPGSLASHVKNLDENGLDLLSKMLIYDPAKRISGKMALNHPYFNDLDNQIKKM
UniProt O96017: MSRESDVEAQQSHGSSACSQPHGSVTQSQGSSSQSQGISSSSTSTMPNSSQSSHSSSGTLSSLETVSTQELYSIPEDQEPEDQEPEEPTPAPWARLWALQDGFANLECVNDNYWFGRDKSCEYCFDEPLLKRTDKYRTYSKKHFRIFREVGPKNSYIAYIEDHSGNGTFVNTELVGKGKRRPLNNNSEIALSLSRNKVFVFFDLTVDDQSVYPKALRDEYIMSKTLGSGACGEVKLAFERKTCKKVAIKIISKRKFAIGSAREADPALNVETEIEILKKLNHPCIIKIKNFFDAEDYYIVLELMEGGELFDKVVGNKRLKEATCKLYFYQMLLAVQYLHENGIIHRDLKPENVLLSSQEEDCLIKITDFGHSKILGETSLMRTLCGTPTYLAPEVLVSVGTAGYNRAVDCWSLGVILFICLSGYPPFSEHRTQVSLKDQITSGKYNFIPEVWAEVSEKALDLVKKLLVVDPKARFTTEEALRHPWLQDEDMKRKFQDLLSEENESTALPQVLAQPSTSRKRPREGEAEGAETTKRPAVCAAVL
UniProt P10415: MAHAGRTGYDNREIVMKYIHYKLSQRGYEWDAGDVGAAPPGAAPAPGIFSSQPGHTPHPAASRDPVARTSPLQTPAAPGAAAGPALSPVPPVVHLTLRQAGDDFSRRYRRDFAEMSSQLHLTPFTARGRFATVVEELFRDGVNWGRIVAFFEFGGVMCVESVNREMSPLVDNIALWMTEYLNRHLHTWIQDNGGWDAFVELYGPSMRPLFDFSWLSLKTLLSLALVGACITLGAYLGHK
UniProt P14635: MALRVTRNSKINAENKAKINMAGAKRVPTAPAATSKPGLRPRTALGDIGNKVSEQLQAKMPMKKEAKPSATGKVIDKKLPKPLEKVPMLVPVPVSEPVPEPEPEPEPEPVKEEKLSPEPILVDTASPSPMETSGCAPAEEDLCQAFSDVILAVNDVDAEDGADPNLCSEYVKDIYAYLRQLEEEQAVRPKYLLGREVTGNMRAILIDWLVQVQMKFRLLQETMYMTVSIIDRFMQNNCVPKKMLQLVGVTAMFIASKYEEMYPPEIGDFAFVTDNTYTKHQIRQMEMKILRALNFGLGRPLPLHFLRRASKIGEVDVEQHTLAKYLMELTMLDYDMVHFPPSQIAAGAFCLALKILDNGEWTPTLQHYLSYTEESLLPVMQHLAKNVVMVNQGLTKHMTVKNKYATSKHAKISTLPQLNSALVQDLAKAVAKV
UniProt P30291: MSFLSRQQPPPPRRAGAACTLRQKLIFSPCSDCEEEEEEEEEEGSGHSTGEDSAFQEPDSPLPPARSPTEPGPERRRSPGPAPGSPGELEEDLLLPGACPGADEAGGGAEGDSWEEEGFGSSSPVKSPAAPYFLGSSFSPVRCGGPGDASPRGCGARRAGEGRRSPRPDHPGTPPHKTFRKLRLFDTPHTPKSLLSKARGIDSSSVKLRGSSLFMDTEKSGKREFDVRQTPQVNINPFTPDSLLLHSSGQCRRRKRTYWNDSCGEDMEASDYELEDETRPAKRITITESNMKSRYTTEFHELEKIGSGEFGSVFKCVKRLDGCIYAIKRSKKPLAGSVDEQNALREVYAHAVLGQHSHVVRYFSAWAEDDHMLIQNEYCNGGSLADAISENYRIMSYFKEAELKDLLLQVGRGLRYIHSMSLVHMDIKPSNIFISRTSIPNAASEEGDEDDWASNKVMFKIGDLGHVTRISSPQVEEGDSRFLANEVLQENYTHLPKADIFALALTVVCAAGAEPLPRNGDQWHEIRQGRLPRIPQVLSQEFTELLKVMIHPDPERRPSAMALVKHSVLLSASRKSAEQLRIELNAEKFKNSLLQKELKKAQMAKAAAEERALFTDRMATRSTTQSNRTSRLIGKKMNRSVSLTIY

What was measured:
[1] = biological target: BECN1 (human (endogenous in MDA-MB-231)) (UniProt Q14457); experiment: co-IP; anti-BECN1 immunoprecipitates from MDA-MB-231 cells with or without 4-Gy irradiation; western blot with the indicated antibodies
Flag-BECN1 = Flag-BECN1 (UniProt Q14457); experiment: co-IP; Flag-BECN1 and its deletion mutants overexpressed in MDA-MB-231 cells; immunoprecipitation with a flag antibody
[2] = biological target: T1, CDC25C (human (endogenous in MDA-MB-231)) (UniProt P30307); experiment: co-IP; anti-CDC25 immunoprecipitates from BECN1-WT cells and from BECN1-KO MDA-MB-231 cells overexpressing Flag-BECN1 or its mutants, with or without irradiation; western blot with anti-CDC25C and anti-CHK2
T1 sequence: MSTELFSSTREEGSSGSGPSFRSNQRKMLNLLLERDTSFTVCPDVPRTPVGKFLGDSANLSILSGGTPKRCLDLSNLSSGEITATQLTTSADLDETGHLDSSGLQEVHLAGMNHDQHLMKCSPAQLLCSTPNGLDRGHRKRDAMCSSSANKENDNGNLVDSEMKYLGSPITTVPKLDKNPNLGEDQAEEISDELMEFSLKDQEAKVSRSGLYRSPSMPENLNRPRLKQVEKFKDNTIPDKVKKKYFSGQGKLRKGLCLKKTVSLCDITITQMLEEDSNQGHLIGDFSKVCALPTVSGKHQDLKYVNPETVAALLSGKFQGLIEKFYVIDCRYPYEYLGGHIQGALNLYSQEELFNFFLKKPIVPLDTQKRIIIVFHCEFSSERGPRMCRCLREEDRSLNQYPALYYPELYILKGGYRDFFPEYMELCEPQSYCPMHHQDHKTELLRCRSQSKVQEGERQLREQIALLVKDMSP

[3] = biological target: BECN1 (human (endogenous in MDA-MB-231)) (UniProt Q14457); experiment: co-IP; cytoplasmic fraction of MDA-MB-231 cells with or without 4-Gy irradiation; immunoprecipitates with anti-BECN1, anti-CHK2 or anti-CDC25C; western blot with anti-CDC25C and anti-CHK2
[4] = biological target: BECN1 (human (endogenous in MDA-MB-231)) (UniProt Q14457); experiment: co-IP; nuclear fraction of MDA-MB-231 cells with or without 4-Gy irradiation; immunoprecipitates with anti-BECN1, anti-CHK2 or anti-CDC25C; western blot with anti-CDC25C and anti-CHK2
Flag-CDC25C = biological target: T2, Flag-CDC25C (UniProt P30307); experiment: co-IP; BECN1-WT and BECN1-KO cells transfected with Flag- or HA-tagged expression vectors, with or without irradiation, BECN1 re-expressed in KO cells; immunoprecipitation with anti-HA or anti-Flag; western blot with anti-Flag, anti-HA, anti-CDK1 and anti-CCNB1
T2 sequence: T1 sequence

[5] = biological target: CDK1 (human (endogenous in MDA-MB-231)) (UniProt P06493); experiment: co-IP; anti-CDK1 immunoprecipitates from lysates of BECN1-WT and BECN1-KO MDA-MB-231 cells (DMSO or 3-MA; with or without 4-Gy irradiation; BECN1 re-expressed in KO cells); lysis in PBS buffer with 50 nM Tris-base, 1 mM EDTA, 1% NP-40; Pierce Classic IP Kit; western blot
HA-CHK2 = HA-CHK2 (UniProt O96017); experiment: co-IP; BECN1-WT and BECN1-KO cells transfected with Flag- or HA-tagged expression vectors, with or without irradiation, BECN1 re-expressed in KO cells; immunoprecipitation with anti-HA or anti-Flag; western blot with anti-Flag, anti-HA, anti-CDK1 and anti-CCNB1

BCL2 (from UniProt P10415 1-239)
binding [1]: binds

CCNB1 (from UniProt P14635 1-433)
binding [1]: no binding

CHK2 (from UniProt O96017 1-543) (enzyme)
binding (Flag-BECN1): binds
binding [2]: binds
binding [3]: no binding (condition: in the cytoplasmic fraction)
binding [1]: binds
binding [4]: binds

HA-CHK2 (from UniProt O96017 1-543) (enzyme)
binding (Flag-CDC25C): binds

WEE1 (from UniProt P30291 1-646) (enzyme)
binding [1]: no binding
binding [5]: binds

B1: CDC25C (enzyme, UniProt P30307 1-473)
chain: T1 sequence
binding (Flag-BECN1): binds
binding [3]: no binding (condition: in the cytoplasmic fraction)
binding [1]: binds
binding [4]: binds
binding [5]: binds

B2: Flag-CDC25C (enzyme, UniProt P30307 1-473)
chain: T1 sequence
binding (HA-CHK2): binds
